Where “and” joins values, the source holds several entries; their conditions need not be identical. Equal entries are not always repeated.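 These data come from cells grown in 96-well plates and exposed to compound for 48 hours at five concentrations. GI50 is the concentration that inhibits growth by half. TGI denotes the concentration required for complete inhibition of growth.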 A value given as a limit tells only on which side of the number the result lay.

This test deals with NCI-H322M lung. Briefly: NCI anticancer screen, dose series, 48 h.
The compound `COC1/C=C/C(C)C(OC)CC(O)/C=C/C(C)C(C(C)C(OC)C(C)CCC(=O)C(C)C(C/C=C/N(C)C=O)OC)OC(=O)/C=C/C=C(\C)CC(OC)CC2=CC(=O)O[C@@H](C(C)C(OC)C1)[C@H]2O` (some centres undefined) returned a TGI above 9 µM. `O=C1CC2(CCC(O)(c3cccc4ccccc34)C(C(=O)c3cccc4ccccc34)C2)C(=O)c2ccccc2N1` (centres undefined) gave a TGI above 100 µM. `Clc1ccc(CSC2=NCCN2)cc1Cl` gave a TGI of 48.3 µM.

`COCCNCCc1cccc(Nc2ncc3c(n2)-c2ccccc2C(c2ccccc2F)C3)c1` (centres undefined): the GI50 is 1.64 µM and 1.65 µM; the TGI was 3.06 µM and 3.05 µM. Consider `CC/C=C\C/C=C\C[C@H]1C/C=C2/C(=O)C=C[C@@H]2C/C=C\CCC(=O)O1`, for which the GI50 was 4.08 µM and the TGI is 8.3 µM.

As to `C=C(C)C(CC=C(C)C)Cc1c(O)cc(OC)c2c1OC(c1ccc(O)cc1O)C(O)C2=O` (centres undefined), the TGI turned out to be 34.1 µM.

In the case of `CC1=C[C@H](O)[C@@]2(C)[C@@H]([C@@H]1C)[C@H]1CC[C@@H]3[C@@]4(C)CC[C@H](O)C(C)(C)[C@@H]4CC[C@@]3(C)[C@]1(C)C[C@@H]2O`, the TGI amounted to 28.3 µM. Compound `COc1ccc2c(=O)c(-c3cc4c(cc3OC)OCO4)coc2c1` yielded a TGI above 100 µM.

The compound `O=C1[C@H]2ON(c3ccccc3)C(c3ccc(Cl)cc3Cl)[C@H]2C(=O)N1c1ccc(Cc2ccc(N3C(=O)[C@@H]4ON(c5ccccc5)C(c5ccc(Cl)cc5Cl)[C@@H]4C3=O)cc2)cc1` (some centres undefined) had a TGI above 100 µM. On the same count and under the same terms, as for `Cc1n[nH]c(=O)n1-c1cccnc1`, the figure is above 100 µM. With `CCC[CH2][Sn]([CH2]CCC)([O]C(=O)c1ccc(C)c(N)c1)[O]C(=O)c1ccc(C)c(N)c1`, the GI50 was 1.55 µM and the TGI is 2.89 µM. Compound `CCC(CN(C)C)C(=O)c1ccco1` (centres undefined) showed a TGI above 100 µM. `CC(=O)Nc1ccc(NNc2cc(=O)n(C)c(=O)[nH]2)cc1` yielded a TGI of 26.5 µM. In turn, `CC(=O)OCC1OC(N2C(=S)N[C@H]([C@@H](O)[C@H](O)[C@H](O)CO)[C@H]2O)C(OC(C)=O)C(OC(C)=O)C1OC(C)=O` (some centres undefined) came in with a TGI above 100 µM. Same read-out and setting: the figure for `CN1C(=O)N(C)C(N2CCCC2)c2c1nc1ccccn1c2=O` (centres undefined) is above 100 µM; for `CCOC(=O)C1(C(=O)OCC)OC(=O)NC2=C1CCCC2` it is above 100 µM. Same read-out and setting: the figure for `CC(C)(C)c1ccc2c(c1)C(=O)c1ccccc1C2=O` is above 100 µM; for `O=C(NC1C2CC3CC(C2)CC1C3)c1ccncn1` (centres undefined) it is above 100 µM; for `O=C1c2ccc3cc(CCl)cc(O)c3c2C(=O)c2cccc(O)c21` it is above 10 µM.

With `CNC(=S)NC(=S)N(C)C`, the TGI was above 100 µM.

For the compound `COc1cnc2c(c1)C(=O)c1c-2n(CCCBr)c(=O)c2cc([N+](=O)[O-])ccc12`, the GI50 was 0.358 µM and the TGI was found to be 5.13 µM.

As for `CC(C)(C)OC(=O)NCC(c1c[nH]c2ccc(Br)cc12)c1c[nH]c2ccc(Br)cc12`, the TGI is 20.7 µM. As to `CCCCCc1c(C)[nH]c(/C=C2\N=C(c3ccc[nH]3)C=C2Oc2ccccc2)c1C`, the GI50 was 0.0364 µM and 0.017 µM; the TGI was 3.4 µM and 2.89 µM. As for `FC(F)(F)CNc1nccc(-c2cnn3ncccc23)n1`, the GI50 was 13.9 µM and the TGI was above 25 µM.

In turn, `COc1cc(CCCl)c(CC2=NCCc3cc(OC)c(OC)cc32)cc1OC` gave a TGI above 100 µM.

With `Nc1ccc2c(c1)Cc1ccccc1-2`, the TGI was above 100 µM. For the compound `Nc1c(C(=O)Nc2ccccn2)sc2nc3c(cc12)CCCCC3`, the GI50 is 3.99 µM and the TGI is above 50 µM. Turning to `O=C(O)COc1cc(-c2ccccc2)nc2ccc(F)cc12`, the TGI was above 100 µM. Same read-out and setting: as for `C=C1C/C(=C/C)C(=O)O[C@@H]2CCN3CC=C(COC(=O)[C@]1(C)O)[C@H]23`, the figure is above 100 µM. Turning to `COc1cc(NC(=O)c2ccc(C(F)(F)F)nc2Nc2ccc(Cl)cc2C)cc(OC)c1OC`, the GI50 is 11.5 µM and the TGI came to 65.8 µM. `NN/C(=N\S(=O)(=O)c1ccc(-c2ccccn2)s1)Nc1ccc(Cl)cc1`: the TGI was above 100 µM. `Oc1ccc2c(c1)OCC1c3ccccc3OC21` (centres undefined) displayed a TGI above 100 µM. On the same count and under the same terms, the figure for `C=CCCC1CCCCC/C1=N\N(C)C` (centres undefined) is above 100 µM; for `COC(=O)C1=C(c2cc(OC)c(OC)c(OC)c2)OC(c2ccc3c(c2)OCO3)C1` (centres undefined) it is above 100 µM; for `O=c1n(-c2ccccc2)c(=O)n2n1C1C=CC2CCCCCC1` it is above 100 µM.

With `Cn1c(=O)c2c(ncn2Cc2ccc(O)c([N+](=O)[O-])c2)n(C)c1=O`, the TGI is above 100 µM. Same read-out and setting: as for `CC(=O)NC1=C(C)C(=O)c2c(nc3n2CCC3OC(=O)c2ccccc2)C1=O` (centres undefined), the figure is 13.4 µM; as for `O=C(c1ccccc1)c1nc2ccc(Cl)cc2c2c1Cc1ccccc1-2`, above 100 µM; as for `O=C(O)CCC(NC(=O)c1ccc(Nc2nc3ccc(C(F)(F)F)cc3nc2-c2ccccc2)cc1)C(=O)O` (centres undefined), above 100 µM. The same measure, in the same setting: the figure for `COC1=C(OC)C23CCc4ccc(OC)c(O)c4C2(CCN3)CC1=O` (centres undefined) is above 100 µM; for `CCn1ncc(Oc2c(Cl)cc(N)cc2Cl)c(Cl)c1=O` it is above 100 µM. Same read-out and setting: the figure for `CC[C@]1(Cc2ccc(OC)c(OC)c2)[C@@H]2C[C@@H](C(=O)OC)ON2O[C@H](OC2CCCC2(c2ccccc2)c2ccccc2)[C@@H]1OC(C)=O` (some centres undefined) is above 100 µM. With `C[C@]12CC[C@H](OC3OC(O)C(O)C(O)C3O)C=C1CCC1C2CC[C@]2(C)[C@@H](c3ccc(=O)oc3)CC[C@]12O` (some centres undefined), the GI50 was 0.005 µM and the TGI stood at 0.00611 µM. On the same counts, the results for `COc1cccc2cc(N(C)c3ncnc4ccccc34)ccc12` are below 0.0136 µM and 17.9 µM.
